Reference: PubChem BioAssay AID686979 (National Center for Advancing Translational Sciences (NCATS), 2013)
About 50,000 (12%) of roughly 420,000 compounds were called active. Inconclusive means that the source gave no clear call. Such entries were picked first, then a sample of the others. The call rests on the fitted dose curve; in most records, active means well fitted inhibition curve with a large enough effect; inconclusive means small, poorly fitted or top-dose-only effect; inactive means flat fitted curve, though single readings scatter. No potency is given beside an inconclusive call; the fits are too rough. A structure can be active in one record and inactive in another.

test: qHTS for Inhibitors of human tyrosyl-DNA phosphodiesterase 1 (TDP1): qHTS in cells in presence of CPT; details: chicken DT40 Tdp1-/-;hTDP1 cells + 20 nM CPT, ATP luminescence, 48 h; series mostly up to 46.2 µM; further: nearly all actives have a fitted effect of over 55% in size
Summary of the method: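 Chicken DT40 Tdp1-/- cells stably complemented with human TDP1 were seeded at 400 cells/well in medium containing 20 nM camptothecin, exposed to pin-transferred compounds, and grown at 37 °C for at least 48 hr. Viability was read as ATP luminescence.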
Potency means the concentration at half of the fitted maximal effect; tags describe the fitted curve by direction and shape.

Row | Structure (SMILES) | Potency
1 | CC(C)c1ccc(S(=O)(=O)N2CCC(C(=O)N3CCN(c4cccc(Cl)c4)CC3)CC2)cc1 | active: 25.9 µM
2 | O=C(C1CC1)N1CCN(c2ccc(F)cc2)CC1 | inactive
3 | O=C(Nc1ccc(Cl)cc1)c1cc(S(=O)(=O)Nc2ccccn2)ccc1Cl | inconclusive [inhibitor, single point]
4 | Cc1ccc(/C=C/C(=O)c2ccc([N+](=O)[O-])o2)cc1 | active: 1.64 µM
5 | Cc1ccc(-n2nc3c(=O)n(CC(=O)NCc4cccs4)nc(C)c3c2C)cc1 | inconclusive [inhibitor, single point]
6 | O=C(CSc1ccccc1)Nc1ccncc1 | inconclusive [inhibitor, single point]
7 | CN(C)C(=O)Cn1c(SCC(=O)NCc2ccc3c(c2)OCO3)nc2ccccc21 | inactive
8 | COc1ccc(-c2[nH]c(-c3ccccc3)nc2SCC(=O)Nc2ccc3c(c2)OCO3)cc1 | inconclusive [inhibitor, single point]
9 | Cc1ccc(NS(=O)(=O)c2cccc(C(=O)NCCc3c[nH]c4ccccc34)c2)c(C)c1 | inconclusive [inhibitor, single point]
10 | O=[N+]([O-])c1ccc2ccn(C3OCC(O)C(O)C3O)c2c1 (stereo not given) | inactive
11 | CC(C)c1onc(C(=O)N2CCC(C(N)=O)CC2)c1[N+](=O)[O-] | inactive
12 | CN1CCN(C(=O)CSc2ccc(Cl)cc2)CC1 | inactive
13 | N/C(COc1cccc(C(F)(F)F)c1)=N\NC(=O)c1cccnc1Oc1ccccc1 | inconclusive [inhibitor, partial curve]
14 | COc1ccc(NC(=O)c2ccc(-c3cccc(Cl)c3C)o2)cc1 | inconclusive [inhibitor, single point]
15 | CC(NC(=O)Cc1ccc(NC(=O)N2CCCCc3ccccc32)cc1)c1ccccc1 (stereo not given) | inconclusive [inhibitor, single point]
16 | Brc1ccc(-c2csc(N3CCCCCC3)n2)cc1 | inactive
17 | O=C1CCc2ccc(NS(=O)(=O)c3ccc(F)cc3)cc2N1 | inconclusive [inhibitor, single point]
18 | COc1ccc(-c2nc(CSc3nc4ncccc4[nH]3)c(C)o2)cc1OC | inconclusive [inhibitor, single point]
19 | CCOc1ccc2ccccc2c1C(=O)NCC(c1ccc(N(C)C)cc1)N(C)C (stereo not given) | inconclusive [inhibitor, single point]
20 | O=c1cc(-c2ccccc2)oc2cc(O)c(O)c(O)c12 | active: 16.8 µM
21 | CC(=O)NC1C(c2nc3ccccc3s2)=C(c2ccccc2)C(=O)N1c1ccc(C)cc1 (stereo not given) | inconclusive [inhibitor, single point]
22 | CCCn1c(=N)n(CC(=O)c2ccc([N+](=O)[O-])cc2)c2ccccc21 | inconclusive [inhibitor, single point]
23 | c1nc(NCC2(N3CCOCC3)CCCCC2)c2ccsc2n1 | active: 11.6 µM

Row | Structure (SMILES) | Potency
24 | CCCCCCCC(=O)Nc1cc(C(=O)NCc2ccc(C)cc2)ccc1N1CCC2(CC1)CC(c1ccccc1)=NO2 | inconclusive [inhibitor, single point]
25 | O=[N+]([O-])c1nn(-c2ccc3c(c2)OCCO3)n(O)c1=NC1CCCCCC1 | inconclusive [inhibitor, partial curve]
26 | Cc1csc2ncnc(N3CCN(C(=S)Nc4ccc(F)cc4F)CC3)c12 | inconclusive [inhibitor, partial curve, poor fit]
27 | Cc1ccc(CNC(=O)CN2C(=O)COc3ccc(S(=O)(=O)N4CCC(C)CC4)cc32)cc1 | inconclusive [inhibitor, single point]
28 | CCN(CC)C(=O)[C@H]1CC(CC(=O)NCC23CC4CC(CC(C4)C2)C3)C(=O)N2CCc3c([nH]c4ccccc34)[C@]12C (stereo not given in full) | active: 16.4 µM
29 | N#Cc1ccccc1COc1ccc(/C=C/C(=O)O)cc1 | inactive
30 | CCn1ncc(CN2CCC(C(=O)Nc3cccc(-c4cccc(F)c4)c3)CC2)c1C | inconclusive [inhibitor, single point]
31 | COc1ccc(CCNC(=O)c2cc(-c3ccc(C)cc3O)n[nH]2)cc1OC | inconclusive [inhibitor, single point]
32 | CCN1C(=O)c2ccccc2S(=O)(=O)c2ccc(C(=O)NCc3ccc(F)cc3)cc21 | inconclusive [inhibitor, single point]
33 | CCOc1cc2[nH]c(=O)n(CCCN3CCN(c4ccc(OC)cc4)CC3)c(=O)c2cc1OCC | inconclusive [inhibitor, single point]
34 | O=C(CNC(=O)OCc1ccccc1)NC1CCCCCC1 | inactive
35 | O=C(c1ccco1)N(CCC(c1ccccc1)c1ccco1)Cc1ccccc1 (stereo not given) | inconclusive [inhibitor, single point]
36 | CC1CCCCC1NC(=O)/C=C/c1nc2ccccc2s1 (stereo not given) | inconclusive [inhibitor, single point]
37 | CCOc1ccc(-c2cnc3n2CCC3)cc1 | inconclusive [inhibitor, single point]
38 | N[C@@H](Cc1cc(I)c(Oc2ccc(O)cc2)c(I)c1)C(=O)O | inactive
39 | CCSc1nnc(NC(=O)c2cccc(OCc3c(C)noc3C)c2)s1 | inactive
40 | O=C(c1ccc2nc[nH]c2c1)N1CCN(c2cccc(Cl)c2)CC1 | inconclusive [inhibitor, single point]
41 | O=C(c1ccncc1)N1CCN(S(=O)(=O)c2ccc(F)cc2)CC1 | inactive
42 | CCS(=O)(=O)NCCCc1ccccc1 | active: 20.6 µM
43 | FC(F)(Cl)c1nnc2ccc(Sc3ccccn3)nn12 | inconclusive [inhibitor, single point]
44 | O=C1NC(=S)N(C(=O)c2ccc(F)cc2)/C1=C/c1ccccc1 | active: 23.1 µM
45 | CC1CC(=O)N(c2ccc(NCc3ccc(Cl)cc3)c([N+](=O)[O-])c2)C1=O (stereo not given) | inconclusive [inhibitor, single point]
